Source: the supplement of paper PMC11417369
Some of the results follow.

test system: PfAP2-HC AP2 domain (GST-tagged); test: gcPBM binding intensity (ln(normalized median fluorescence intensity)); higher = stronger DNA binding
How it was run: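 An Agilent 4 × 180k array of primer-extended double-stranded 36-bp intergenic genomic probes, with negative controls, was incubated for 1 h with GST-tagged P. falciparum DNA-binding domains expressed in E. coli. Alexa488 anti-GST antibody detected bound protein, scanned at 488 nm. Binding intensity is the highest Masliner-normalised natural-log median intensity across replicate spots of either probe orientation.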

Row | Sequence | gcPBM binding intensity (ln)
1 | TTAAGAATATCTTAGAGTACATTTTATCATCTTAAA [XGTACX_site8298] | 9.3
2 | TCTTTTTAAATTACTATAATACATTCATAAATTATA [GTGCAC_negctrl_site448] | 9.54
3 | AATTTATTTTTTTAATGTACATATGGTATAAATATA [XGTACX_site8012] | 9.36
4 | TGTTGATTTCTCAAATGTACTTTACTTTTCTTCAGA [XGTACX_site7916] | 9.44
5 | TTTTTTTTTTTTAATTGTACATTTTATATAAACTTT [XGTACX_site6806] | 9.61
6 | AATATATATATATGTACACACTCCAATACATATACA [CACACA_site2682] | 9.83
7 | TATATGTATGTATGTACACACAAAAAATGGAATATA [CACACA_site3717] | 10.1
8 | TTTTTTTATTTTATAAAGCAAAAATAAGAATGAAAT [XGTACX_negctrl_site270] | 9.28
9 | AGGGAATAAGTAAGGTGTACATAATTATGTTACTTT [XGTACX_site6152] | 9.76
10 | TACGAATTAAAAAAGAGTACAAATAAAATATCTACA [XGTACX_site7412] | 9.59
11 | CATACATACATATATACACACATATATAATAATATA [CACACA_site2678] | 10.1
12 | AATTAGCTCAAAGGTTGTACAAATATATTTTAATGG [XGTACX_site2352] | 9.6
13 | TTTTAAACACCAATCAAAAAAATATAAATATAAATA [TGCATGCA_negctrl_site552] | 9.48
14 | AATATAAATACTCCTACACACATATAAATATAAATA [CACACA_site7419] | 9.96
15 | TCCACATTAATGTAATGTACAAAATTAGAAAATAAA [XGTACX_site6287] | 9.51
16 | TTTTGATTAAGTGAATTTTTTTATTTATATAAATAT [TGCATGCA_negctrl_site479] | 9.56
17 | TTACATTGTAAAAAGTGTACATATAATTTAATTAAT [XGTACX_site1834] | 9.67
18 | ATGTAGACTGAAACCACACACACATATATATATATA [CACACA_site606] | 10.8
19 | GGATTACAAATAGGTTGTACGTTTTTTTTTTTTTCT [XGTACX_site3605] | 9.65

Row | Sequence | gcPBM binding intensity (ln)
20 | AAAAAAAATAATTTGCGTACATAAAAATTTATAGGA [XGTACX_site3016] | 9.58
21 | AAATTTTTTTTTGTCATATGATGTTTGAACCCAAAT [CACACA_negctrl_site1659] | 9.49
22 | TCCGTATATTTATACGCATGCATTATGAACATTGTT [TGCATGCA_site613] | 9.71
23 | TATATTATATATATATGTACATATGGCAAAACATTA [XGTACX_site7958] | 9.62
24 | AAAAAAAAAAAAAAATGTACCCATAAAATAAGCATT [XGTACX_site8576] | 9.77
25 | AATCACAACGAACACACACACAAAAAAAAAAAAAAA [CACACA_site6790] | 10.1
26 | TTTTTTACAATTAACACACTCAAAAATAATATTAAA [CACACA_site5198] | 9.41
27 | AATTTTTTAAATGTGTGTACATATTATTTAAATAAT [XGTACX_site5967] | 9.63
28 | AAAAATTAAATGTACACACACCTTAAACAATGTCAT [CACACA_site6958] | 9.98
29 | AAATACTGATTTGGTTGTACATGTGCACTATATAAC [XGTACX_site3795] | 9.76
30 | ATAAATATATTTATATGTACATATAATTTTACATAT [XGTACX_site5440] | 9.85
31 | TATAATCTAACATAATGTACATGTATATGCACTTTA [XGTACX_site369] | 9.67
32 | ATATATATATCTAATTGTACATATTTTATAAATAAG [XGTACX_site4840] | 9.46
33 | AAAAAAAAAAAAAAAAAAAAAAAAATCACACATTGG [TGCATGCA_negctrl_site412] | 9.37
34 | TTTTGGATGTATTATACATGCATATTATTATAATAT [TGCATGCA_site997] | 9.62
35 | ATATATCTACAAATATGTACACACACACATATATAT [XGTACX_site1075] | 11.1
36 | AAAAAAAAAAAATAAAGTACTAAATAATACATTATA [XGTACX_site6203] | 9.53
37 | AGAAAAGAAATTAAATGTACACAACTATAACCAAAT [XGTACX_site8084] | 9.86
38 | TGTACAACAATTTTTGCACACACCAAAACATAAAAT [CACACA_site1598] | 10.2

Row | Sequence | gcPBM binding intensity (ln)
39 | GAACAAAAATACTTATGTACACATTAGCAAGGAAAA [XGTACX_site5622] | 9.71
40 | TGTTTCTTATTTTTTTCACACACTAATCATTTCAAA [CACACA_site8695] | 9.88
41 | ATTATGTTATTATTTTGTACACATAAATAATACGTT [XGTACX_site816] | 9.84
42 | TCATATGTGAAACACACACACACACCCAAAAAAACA [CACACA_site3247] | 10.6
43 | AAAAAAAATATCCGACGTACTATTTTCGTAGAAATA [XGTACX_site6292] | 9.54
44 | TATACGCATATATACACACACATATATATATATATA [CACACA_site3416] | 9.98
45 | AAACAAAAAAGAAGCACACATATATATATATATATG [CACACA_site2456] | 9.81
46 | ATCTGAAAAATTAATAGTACAATTAATAATTAAACC [XGTACX_site8523] | 9.67
47 | TGTTAATTTCATTTTCTACACACCTATCCTTTTTTT [CACACA_site8157] | 10
48 | ACAAATAAATATTCGCGTACTTATATAATATTACGA [XGTACX_site6428] | 9.66
49 | AACAAACAAATAGTTTATTTTGATTTTTTTAAAAAT [CACACA_negctrl_site693] | 9.28
50 | ATATTTATATTTGTATGTACTTAAGTTTGTATGTAT [XGTACX_site3608] | 9.73
51 | TTTTTAATTCAAAAAATAATATATTATATTTCAAAT [CACACA_negctrl_site737] | 9.33
52 | ATATATTAGGGCAAATTTTCTGACATTACATCAGTC [CACACA_negctrl_site1166] | 9.46
53 | TATTTTTCTTTTTTCTGTACTCACACAAATAGAAGG [XGTACX_site7329] | 9.37
54 | TTTTTACGTAAACAAAATAATTATATAATATTATTT [CACACA_negctrl_site1769] | 9.52
55 | CGTAAATTTTTTAAAAGTACAAAAAGATACGAGAAA [XGTACX_site8722] | 9.51
56 | TAAACAAATAAATAAACACACAATATATGTATATAT [CACACA_site3803] | 9.87
